Source: PubChem BioAssay AID1645887 (National Center for Advancing Translational Sciences (NCATS), 2021)
Values joined by “and” are separate entries in the source; they are usually repeats but may differ in a detail not shown here. Equal entries are not always repeated. The campaign covered roughly 16,000 compounds. About 40 (0.2%) were called active. Roughly 1% stayed inconclusive and do not appear here. Calls follow the shape of the dose curve; as a rule, active = well fitted activation curve with a large enough effect; inconclusive = small, poorly fitted or top-dose-only effect, or another doubt; inactive = no such curve, though single readings can be large or run the other way. The list shows a part of the results.

target: Rap guanine nucleotide exchange factor 4 (Homo sapiens) (UniProt Q8WZA2); experiment: Validation qHTS for agonist of cAMP-regulated guanine nucleotide exchange factor 4 (EPAC2); settings: EPAC2 Rap1B BODIPY-GDP exchange, fluorescence; activation: hits give high values;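 also: exchange makes BODIPY-GDP fluorescence drop when released from Rap1B; series mostly up to about 150 µM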
Chain of UniProt Q8WZA2 (Q8WZA2 whole entry, looked up): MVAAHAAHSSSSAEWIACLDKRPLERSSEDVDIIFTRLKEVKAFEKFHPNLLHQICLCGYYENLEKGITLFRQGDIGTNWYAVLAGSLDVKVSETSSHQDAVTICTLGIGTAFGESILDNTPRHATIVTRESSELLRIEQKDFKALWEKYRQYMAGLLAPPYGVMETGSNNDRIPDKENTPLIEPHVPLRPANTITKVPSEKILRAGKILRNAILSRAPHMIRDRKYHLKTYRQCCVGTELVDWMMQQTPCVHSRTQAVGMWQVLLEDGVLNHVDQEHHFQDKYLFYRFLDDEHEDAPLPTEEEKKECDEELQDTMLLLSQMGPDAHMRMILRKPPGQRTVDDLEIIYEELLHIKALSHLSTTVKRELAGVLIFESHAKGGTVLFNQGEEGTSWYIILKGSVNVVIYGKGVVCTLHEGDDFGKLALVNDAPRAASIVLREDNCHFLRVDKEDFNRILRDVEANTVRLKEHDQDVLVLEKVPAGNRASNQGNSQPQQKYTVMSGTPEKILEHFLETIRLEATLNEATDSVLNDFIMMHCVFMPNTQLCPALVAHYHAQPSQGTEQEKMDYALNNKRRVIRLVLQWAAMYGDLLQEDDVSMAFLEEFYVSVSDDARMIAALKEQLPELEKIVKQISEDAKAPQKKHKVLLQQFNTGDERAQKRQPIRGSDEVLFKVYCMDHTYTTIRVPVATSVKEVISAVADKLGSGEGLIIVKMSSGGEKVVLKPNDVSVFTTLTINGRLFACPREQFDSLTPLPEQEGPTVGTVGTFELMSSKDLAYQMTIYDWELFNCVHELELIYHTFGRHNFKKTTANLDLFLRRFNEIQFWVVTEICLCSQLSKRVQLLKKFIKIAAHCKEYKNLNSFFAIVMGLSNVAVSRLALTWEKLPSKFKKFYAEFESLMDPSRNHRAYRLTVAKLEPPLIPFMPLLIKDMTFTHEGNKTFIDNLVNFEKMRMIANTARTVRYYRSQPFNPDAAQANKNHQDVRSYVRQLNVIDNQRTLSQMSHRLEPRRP
Method in brief: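 Signal normalized against 6.5 mM cAMP as agonist control. Mix of EPAC2 (100 nM), RAP1B-BODIPY-GDP (250 nM) and GDP (50 uM) was read kinetically at 480/540 nm, every 5 min over 30 min, after 5 min room-temperature incubation with compound.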
% is scaled to controls: 0 for no effect and ±100 for the full control effect.

activation, inactive:
CC(=O)OCC(COC(C)=O)OC(C)=O -6.06% and -2.83%
Cc1ccccc1N=C(N)Nc1ccccc1C -23.9% and -0.854%
COc1cccc(Cn2c(=O)c(CCc3ccccc3)nc3cnc(N(C)C)nc32)c1 2.14%
COc1ccccc1-c1nc(NCCc2cnc[nH]2)c2ccccc2n1 -4.03%
O=C1CC[C@@H]2C[C@@]3(C[C@@H]4CCN1[C@H]24)Nc1cc([N+](=O)[O-])ccc1NC3=NCc1ccccc1 -23.4%
COc1cc2c(cc1OC)C1CCC3=C([C@H](C)OC3=O)N1CC2 (some centres undefined) -11.7%
CN(C)c1ccc(/C=C/c2sc3ccccc3[n+]2CCCCBr)cc1 13.5%
c1ccc(CNc2cc(-c3cccnc3)ncn2)cc1 -6.82%
CC(=O)OCC1=C(C(=O)O)N2C(=O)C(NC(=O)Cc3cccs3)C2SC1 (centres undefined) 7.48%
COC(=O)N1CCC2(CC1)CCN(c1cccc(-c3ccccc3)c1)CC2 16.2%
C=C1C(=CC=C2CCC[C@]3(C)[C@@H]([C@H](C)C=C[C@H](C)C(C)C)CC[C@@H]23)C[C@@H](O)C[C@@H]1O -19.6%
Cc1ccccc1C(=O)N1CC/C(=N\OS(=O)(=O)O)c2ccc(Cl)cc21 -6.43%
O=C(C[n+]1ccc(/C=C/c2c[nH]c3ccccc23)c2ccccc21)c1ccccc1 -5.46%
CCOc1cccc(C(=O)c2ccc(O)c(O)c2O)c1 -23.3%
CC(=O)OC1CCC2(C)C3=C(CCC2C1(C)C)[C@]1(C)CCC(C(C)CCC=C(C)C)[C@]1(C)CC3 (some centres undefined) -21.2%
CCCCCCCCCCCCCCCC(=O)NC(C)C -14.7%
COC(=O)c1c(OCCN2CCCCC2)cc(=O)n2c1CCN(Cc1cccc3nccnc13)CC2 0.43%
Cc1cnc(CNc2ncncc2-c2ccc3c(c2)OCO3)cn1 -13.9%
COc1ccc(CNc2ncnc3ccc(-c4ccc(N(C)C)cc4)cc23)c(OC)c1 3.66%
O=C(O)Cc1csc(-c2ccc(Cl)cc2)n1 -16.7%
Cc1nc2cnc(N(C)C)nc2n(C2CC2)c1=O -12.9%
Cc1ncc[nH]1 -10.1%
N#CCCn1c(=O)c(-c2ccc(F)cc2)nc2cnc(N3CCNCC3)nc21 -5.62%
NCCC[C@H](N)C(=O)O 6.07%
Clc1ccc(C(Cn2ccnc2)OCc2c(Cl)cccc2Cl)c(Cl)c1 (centres undefined) 20.1%
Cc1nc2sccn2c1CN1Cc2ccccc2OC(c2ccccc2F)C1 (centres undefined) -19.6%
CCCCCCCCCCCCCC(=O)OCC(COP(=O)([O-])OCC[N+](C)(C)C)OC(=O)CCCCCCCCCCCCC (centres undefined) -24.1%
C[C@@H]1Nc2ccc(Cl)cc2S(=O)(=O)N1 -11.1%
N#Cc1ccccc1OCC(O)CNCCNC(=O)Nc1ccccc1 (centres undefined) 8.72%
CC(=O)c1ccc(F)c(-c2cc(C)cc3c2OC(CNC(=O)Cc2c[nH]c4ccccc24)C3)c1 (centres undefined) -5.56%
CC(C)NC(=O)N1CCCC2(CCN(C(=O)c3csnn3)CC2)C1 -7.74%
NC(=O)N1c2ccccc2C=Cc2ccccc21 -11.7% and -12.1% and -10.5%
c1ccc2c(c1)OCC(CN1CCCCC1)O2 (centres undefined) 4.54%
COc1ccccc1CN1CCC2(CC1)c1ccccc1[C@@H](NC(=O)c1ccco1)[C@@H]2OC -12.9%
COc1ccccc1CN1CCC2(CC1)CCN(S(C)(=O)=O)CC2 -20.7%
CCOC(=O)C1=C(C)NC(C)=C(C(=O)OCC)C1c1c(F)c(F)c(F)c(F)c1F -97%
Cc1ccc2nc(CNC(=O)c3cc(NC(=O)c4ccccc4)cc4ncn(C5CCCC5)c34)cn2c1 1.85%
Cn1cccc1C(=O)N1CCC2(CC1)CN(C(=O)Nc1cccc(F)c1)C2 2.21%
COCCn1c(=O)cnc2cnc(OC)nc21 3.62%
C[C@@H](CCCCC(=O)Nc1ccc(C(F)(F)F)cc1)NCCc1cnc[nH]1 -5.3%
O=C(c1ccc2c(c1)OCO2)N(Cc1cc2cc3c(cc2nc1N1CCOCC1)CCC3)CC1CCCO1 (centres undefined) -15%
CN(C)CCN(Cc1cccs1)c1ccccn1 -17.7% and -24.2%
COCCn1c(=O)c(-c2cccc(C#N)c2)nc2cnc(N3CCNCC3)nc21 -13.4%
Cc1ccc(-c2nn(CC(C)(C)C)c3ncnc(N)c23)cc1 -9.47%
COc1ncc2nc(-c3ccc(F)cc3)c(=O)n(C3CC3)c2n1 -2.76%
CCOC(=O)C1OC1C(=O)NC(CC(C)C)C(=O)NCCC(C)C (centres undefined) -3.6%
CC(C)C(=O)NCC1CCC2(CCN(Cc3ccc(-c4cccc(Cl)c4)o3)CC2)O1 (centres undefined) -1.83%
NC(CO)(CO)CO -3.44%
CCn1c(-c2cccc(OC)c2)nc2cc(NC(C)=O)cc(C(=O)N(C)CC3COCCO3)c21 (centres undefined) -1.51%
CCC(Oc1ccccc1)C(=O)N[C@@H]1C(=O)N2[C@@H]1SC(C)(C)[C@@H]2C(=O)O (some centres undefined) -24.5%
O=S(=O)(c1ccccc1)N1CCC2(CCCN(Cc3ccccc3)C2)CC1 1.68%
CN(C)Cc1ccccc1-c1ccc2ncnc(NCc3cccs3)c2c1 -7.25%
COc1ccc(Oc2ncc3ncc(=O)n(C)c3n2)cc1 5.1%
COc1ccc2c(c1)OCc1c-2oc2cc(OC)ccc12 5.89%
COc1ccc(C(=O)NCC2Cc3c(F)ccc(-c4nc(C)cnc4C)c3O2)cc1F (centres undefined) -11.4%
COc1c(O[C@@H]2O[C@H](CO)[C@@H](O)[C@H](O)[C@H]2O)cc2c(c1OC)-c1ccc(SC)c(=O)cc1[C@@H](NC(C)=O)CC2 2.85%
Cn1cccc1C(=O)N1CCC2(CCCN(c3ccncc3)C2)CC1 -6.44%
CC(=O)N1CCC2(CC1)CN(c1cccc(-c3ccccc3)c1)C2 -1.09%
CCCN[C@H]1CCc2nc(N)sc2C1 -12.9%
COc1ccc2c(c1)OC/C(=C/c1ccc(O)c(O)c1)C2=O 21.4%
Cc1nc2cnc(Oc3ccccc3)nc2n(Cc2cccs2)c1=O 0.505%
C[n+]1ccc(C(c2c[nH]c3ccccc23)c2cc[n+](C)c3ccccc23)c2ccccc21 2.98%
CCC(=O)N1CCN(C(=O)c2ccccc2)CC1 -17.3%
Cc1cn2c(=O)c3ccccc3nc2n2c(=O)c3ccccc3nc12 1.2%
Cc1cc(CNC(=O)c2cnn(-c3nccc(-c4cc(C)sc4C)n3)c2C2CC2)on1 3.23%
CSc1nc(NC2CCCC2)c([N+](=O)[O-])c(NC2CCCC2)n1 -15.6%
O=C(O)c1cccs1 -13.4%
CC(=O)C[C@H]1c2cc(C(F)(F)F)ccc2S(=O)(=O)N1C1CCCC1 -17.6%
CCc1nc2cc(C(=O)NC3CCOC(C)(C)C3)cc(NC(=O)c3ccccc3OC)c2n1C (centres undefined) 0.106%
Cn1cc(-c2nc3cncnc3n(-c3ccccc3)c2=O)c2ccccc21 -151%
CCC(COC)NC(=O)c1cnn(-c2ncc3c(n2)-c2ccccc2CCC3)c1C (centres undefined) 0.118%
Cc1nc2ccccc2n1Cc1ccc(Cl)cc1 -17.9%
CN(C)c1ccc(-c2cncnc2N(C)Cc2ccco2)cc1 6.2%
COc1ccccc1-c1ccc2ncnc(Nc3ccccc3)c2c1 -9.21%
Cc1cc2c(c(-c3ccc(Cl)cc3)c1)OC(CNC(=O)CCC(=O)N(C)C)C2 (centres undefined) -28.1%
COc1ccc(NC(=O)/C=C/c2ccc(Cl)cc2)cc1 0.558%
CCCCCCCCCCCCCCCC(=O)OC[C@@H](COP(=O)([O-])OCC[N+](C)(C)C)OC(=O)CCCCCCCCCCCCCCC -14.7%
C[C@@H](/C=C\c1cccc(Oc2ccc(F)cc2)c1)N(O)C(N)=O -36.1%
CNC(=O)c1cc2c(cn1)[nH]c1ccccc12 -1.12% and -1.23% and -18.6%
Cc1cc(=O)oc2cc(O)ccc12 -16.8%
COC(=O)C1CCCCN1Cc1ccc2c(c1)CN(C(=O)c1ccc(F)cc1)CCO2 (centres undefined) -1.05%
COc1ncc2nc(C)c(=O)n(C3CC3)c2n1 1.37%
CCC1CN(CCNC(=O)c2cccc(C)n2)Cc2cc(OC)ccc2O1 (centres undefined) -4.15%
COc1cc(/C=C/C(=O)N2CCN(CC(=O)N3CCCC3)CC2)cc(OC)c1OC 7.62%
CCCCCCCCCCCCCCCCCCOP(=O)([O-])OC1CC[N+](C)(C)CC1 -20.5%
CNc1ncnc2c1ncn2[C@H]1C[C@H](OP(=O)(O)O)[C@@H](COP(=O)(O)O)O1 -13.8%
COc1ncc2nc(CCc3ccccc3)c(=O)n(CCC#N)c2n1 -14.9%
Nc1ncn([C@@H]2O[C@H](CO)[C@@H](O)[C@H]2O)c(=O)n1 -14.2% and -14.3%
CCCNC(C)C(=O)Nc1ccccc1C (centres undefined) -7.01% and -13.3% and -13%
